In general, AC50 refers to the concentration at which the activity in the assay is half-maximal.

The nature of assay [1]: qHTS drug screen for cell cycle checkpoint inhibitors in PARPi-resistant BRCA-mutant ovarian cancer cell lines. (AID 1963452). The conditions noted are these: PEO1/OlaR viability, CellTiter-Glo luminescence, 96 h. In short, it runs like this: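 PEO1, PEO4 and PEO1/OlaR ovarian cancer cells, 600 per well, exposed 96 h at 37C to a dilution series. Viability read by CellTiter-Glo luminescence, normalized to DMSO and empty wells; activity summarized as Z-AUC.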

The nature of assay [2]: qHTS for identification of novel therapeutic agents for treatment of microphthalmiaassociated transcription factor (MiT) renal cell carcinoma (RCC) (AID 1963991). The conditions noted are these: CellTiter-Glo, 48 h; for z-score: stronger effect = lower value. In short, it runs like this: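 Three TFE3-fusion RCC lines (UOK109, UOK124, UOK145), 500 cells/well in complete medium, were treated with MIPE 4.0 compounds for 48 hours at 37 C. Viability was by CellTiter-Glo luminescence, normalized to DMSO (100%) and empty wells (0%); curves fitted over 11 concentrations.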
For orientation: qHTS replaces the single test concentration by a dilution series.

The mark [3] stands for this setting: measured here: PEO1 parental viability.
The mark [4] stands for this setting: TFE3-RCC viability, measured here: UOK124 cell viability.
[5] abbreviates: TFE3-RCC viability, measured here: UOK145 cell viability.
The mark [6] stands for this setting: TFE3-RCC UOK109 viability, measured here: UOK109 Z-AUC.
[7] abbreviates: TFE3-RCC viability, measured here: UOK124 Z-AUC.
Setting [8] is: TFE3-RCC viability, measured here: UOK145 Z-AUC.

SMILES strings stand for the structures. The list shows a part of the results. Further columns of the screen follow, without active or inactive calls. For part of these data: Most of these compounds were active or inconclusive in the main read-out, so they are no random draw. Potencies come from curve fits of mixed quality, noted in brackets.
Tags describe the fitted curve by direction and shape.

With `CCC(=O)N1CCN(c2ccc(-n3c(=O)ccc4cnc5ccc(-c6cnc7ccccc7c6)cc5c43)cc2C(F)(F)F)CC1`, the AC50 was 0.213 µM [falling, full curve] in assay [1] (setting [3]); 0.134 µM [falling, full curve] in assay [1] (measured here: PEO4 viability); 0.0148 µM [falling, full curve] in assay [2] (setting [4]); 0.0166 µM [falling, full curve] in assay [2] (setting [5]).
With `CCOc1ccc(Nc2nc(-c3c(C)nc4ccccn34)cs2)cc1`, the half-maximal activity concentration (AC50) in assay [1] (setting [3]) is 0.0549 µM [falling, full curve, poor fit]; in assay [1] (measured here: PEO4 viability) it was 7.76 µM [falling, partial curve]; in assay [2] (setting [4]) it was 0.00935 µM [falling, full curve]; in assay [2] (setting [5]), 0.00235 µM [falling, full curve, poor fit].
`O=C(Nc1ncc(-c2cc(C(F)F)nn2-c2c(Cl)cccc2Cl)s1)C1CC1`: the AC50 is 0.776 µM [falling, full curve] in assay [1] (setting [3]); 1.1 µM [falling, full curve] in assay [1] (measured here: PEO4 viability); 0.526 µM [falling, full curve] in assay [2] (setting [4]); 0.264 µM [falling, full curve] in assay [2] (setting [5]).
For `COc1cc(Nc2ncc(F)c(Nc3ccc4c(n3)NC(=O)C(C)(C)O4)n2)cc(OC)c1OC`, the half-maximal activity concentration (AC50) in assay [1] (setting [3]) is 2.75 µM [falling, partial curve]; in assay [1] (measured here: PEO4 viability), 3.89 µM [falling, partial curve, poor fit]; in assay [2] (setting [4]) it was 0.935 µM [falling, full curve]. Moreover, the values for the z-score in assay [2] (setting [6]), in assay [2] (setting [7]) and in assay [2] (setting [8]) were -0.418, 0.289 and -0.99, respectively.
As to `COc1ccc(F)c(F)c1C(=O)c1cnc(NC2CCN(S(C)(=O)=O)CC2)nc1N`, the AC50 in assay [1] (setting [3]) was 0.616 µM [falling, full curve]; in assay [1] (measured here: PEO4 viability), 1.38 µM [falling, full curve]; in assay [2] (setting [4]) it was 2.35 µM [falling, full curve]; in assay [2] (setting [5]), 2.35 µM [falling, full curve]. For the same molecule, the results for the z-score in assay [2] (setting [6]), in assay [2] (setting [7]) and in assay [2] (setting [8]) were -1.18, -0.427 and 0.117, respectively.
`Oc1ccc([C@@H]2Oc3ccc(O)cc3[C@@H]3CCC[C@@H]32)cc1`: the AC50 in assay [1] (setting [3]) is 5.49 µM [falling, full curve]; in assay [1] (measured here: PEO4 viability) it was 4.9 µM [falling, full curve]; in assay [2] (setting [4]), 16.6 µM [falling, partial curve]; in assay [2] (setting [5]), 23.5 µM [falling, single point]. Besides, the results for the z-score in assay [2] (setting [6]), in assay [2] (setting [7]) and in assay [2] (setting [8]) were 1.16, -0.101 and -0.106, respectively.
Turning to `Cc1cc([C@@H](C)Nc2ccccc2C(=O)O)c2nc(N3CCOCC3)cc(=O)n2c1`, the AC50 was 13.8 µM [falling, single point] in assay [1] (setting [3]); 11 µM [falling, partial curve] in assay [1] (measured here: PEO4 viability); 12.1 µM [falling, partial curve] in assay [2] (setting [5]). Besides, the z-score in assay [2] (setting [6]) is -1.09; in assay [2] (setting [7]) it was -1.98; in assay [2] (setting [8]), -1.57.
As to `CC1=C[C@@H]2[C@@H]([C@@H](O)C[C@@]3(C)[C@H]2C[C@@H](C)[C@]3(O)C(=O)CO)[C@@]2(C)Cc3cnn(-c4ccccc4)c3C=C12`, the AC50 in assay [1] (setting [3]) is 19.5 µM [falling, single point]; in assay [1] (measured here: PEO4 viability), 12.3 µM [falling, partial curve]; in assay [2] (setting [4]), 18.7 µM [falling, partial curve]; in assay [2] (setting [5]) it was 33.2 µM [falling, single point]. Further, the z-score is -0.285 in assay [2] (setting [6]), 0.107 in assay [2] (setting [7]) and 0.197 in assay [2] (setting [8]).
With `Cc1cc(C(=O)NOCCO)c(Nc2ccc(I)cc2F)n(C)c1=O`, the half-maximal activity concentration (AC50) in assay [1] (setting [3]) is 0.138 µM [falling, full curve]; in assay [1] (measured here: PEO4 viability), 0.049 µM [falling, full curve]; in assay [2] (setting [5]) it was 18.7 µM [falling, partial curve]. In addition, the z-score in assay [2] (setting [6]) was -2.35; in assay [2] (setting [7]) it was -0.323; in assay [2] (setting [8]), -0.584.
As to `NC(=O)c1cccc(-c2cc(Nc3ccc(OC(F)(F)F)cc3)ncn2)c1`, the AC50 in assay [1] (setting [3]) was 13.8 µM [falling, partial curve]; in assay [1] (measured here: PEO4 viability), 19.5 µM [falling, single point]; in assay [2] (setting [4]), 20.9 µM [falling, single point]. Also, the values for the z-score in assay [2] (setting [6]), in assay [2] (setting [7]) and in assay [2] (setting [8]) were 0.275, 0.407 and 0.48, respectively.
For the molecule `CC1(C)CNc2cc(NC(=O)c3cccnc3NCc3ccncc3)ccc21`, the AC50 in assay [1] (setting [3]) is 19.5 µM [falling, partial curve]; in assay [1] (measured here: PEO4 viability), 15.5 µM [falling, single point]; in assay [2] (setting [5]), 20.9 µM [falling, partial curve]. Also, the results for the z-score in assay [2] (setting [6]), in assay [2] (setting [7]) and in assay [2] (setting [8]) were 0.352, 0.46 and 0.314, respectively.

These data come from PubChem BioAssay (NCATS).
